Test results reported in the supplement of paper PMC4604168 (melanoma cell lines).
Some of the results follow. Repeats are few or missing, and single values can be far off.

What follows are compounds tested on WM115 (assay: cell count relative to DMSO control; melanoma cells; higher = more viable cells). Conditions: library dose: low library concentration; 72 h.
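Note: cell number obtained by counting DAPI-stained nuclei in high-throughput microscope images with image analysis software, screen run in 1,536-well plates.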

| Compound | cell count [%] |
| --- | --- |
| C[C@]12O[C@H](C[C@]1(O)CO)n1c3ccccc3c3c4c(c5c6ccccc6n2c5c31)CNC4=O [Lestaurtinib] + Cc1cc(SCc2sc(-c3ccc(C(F)(F)F)c(F)c3)nc2C)ccc1OCC(=O)O [GW0742] (first compound 0.004 µM, partner dose 2 µM) | 114 |
| N.N.[Cl][Pt][Cl] [cisplatin] + C=CCNC1=C2C[C@@H](C)C[C@H](OC)[C@H](O)[C@@H](C)/C=C(\C)[C@H](OC(N)=O)[C@@H](OC)/C=C\C=C(/C)C(=O)NC(=CC1=O)C2=O [Tanespimycin] (first compound 1.6 µM, partner dose 0.002 µM) | 100 |
| C[As](C)SC[C@H](NC(=O)CC[C@H](N)C(=O)O)C(=O)NCC(=O)O [Darinaparsin] + Cn1c(Nc2ccc(C(F)(F)F)cc2)nc2cc(Oc3ccnc(-c4ncc(C(F)(F)F)[nH]4)c3)ccc21 [CHIR265] (first compound 0.4 µM, partner dose 0.08 µM) | 53.6 |
| C[C@]12O[C@H](C[C@]1(O)CO)n1c3ccccc3c3c4c(c5c6ccccc6n2c5c31)CNC4=O [Lestaurtinib] + COc1ccc(-c2ccc3c(N4CCOCC4)nc(N4C[C@@H](C)O[C@@H](C)C4)nc3n2)cc1CO [KU0063794] (first compound 0.004 µM, partner dose 0.02 µM) | 87.9 |
| C[C@]12O[C@H](C[C@]1(O)CO)n1c3ccccc3c3c4c(c5c6ccccc6n2c5c31)CNC4=O [Lestaurtinib] + c1cc(-c2cnn3cc(-c4ccc(OCCN5CCCCC5)cc4)cnc23)ccn1 [Dorsomorphin] (first compound 0.004 µM, partner dose 0.4 µM) | 90.7 |
| C[As](C)SC[C@H](NC(=O)CC[C@H](N)C(=O)O)C(=O)NCC(=O)O [Darinaparsin] + Cc1ccc(NC(=O)c2cccc(N(C)C)c2)cc1NC(=O)c1ccc(O)cc1 [ZM336372] (first compound 0.4 µM, partner dose 2 µM) | 104 |
| C[C@]12O[C@H](C[C@]1(O)CO)n1c3ccccc3c3c4c(c5c6ccccc6n2c5c31)CNC4=O [Lestaurtinib] + CN(c1ncccc1CNc1nc(Nc2ccc3c(c2)CC(=O)N3)ncc1C(F)(F)F)S(C)(=O)=O [PF562271] (first compound 0.004 µM, partner dose 0.08 µM) | 80.9 |
| C[As](C)SC[C@H](NC(=O)CC[C@H](N)C(=O)O)C(=O)NCC(=O)O [Darinaparsin] + Cc1cc(SCc2sc(-c3ccc(C(F)(F)F)c(F)c3)nc2C)ccc1OCC(=O)O [GW0742] (first compound 0.4 µM, partner dose 2 µM) | 115 |
| C[C@]12O[C@H](C[C@]1(O)CO)n1c3ccccc3c3c4c(c5c6ccccc6n2c5c31)CNC4=O [Lestaurtinib] + CC(=O)c1c(C)c2cnc(Nc3ccc(N4CCNCC4)cn3)nc2n(C2CCCC2)c1=O [palbociclib] (first compound 0.004 µM, partner dose 0.04 µM) | 89.1 |
| N.N.[Cl][Pt][Cl] [cisplatin] + Cc1nc(Nc2ncc(C(=O)Nc3c(C)cccc3Cl)s2)cc(N2CCN(CCO)CC2)n1 [dasatanib] (first compound 1.6 µM, partner dose 0.004 µM) | 83.9 |
| Cn1cc(C2=C(c3cn(C4CCN(Cc5ccccn5)CC4)c4ccccc34)C(=O)NC2=O)c2ccccc21 [Enzastaurin] + O=C(O)c1ccc(-c2c[nH]c3ncc(-c4ccccc4)cc23)cc1C1CCCC1 [GSK650394] (first compound 0.8 µM, partner dose 0.16 µM) | 112 |
